Reference: PubChem BioAssay AID504845 (National Center for Advancing Translational Sciences (NCATS), 2011)
Where “and” joins values, the source holds several entries; their conditions need not be identical. Equal entries are not always repeated. The whole screen tested about 390,000 compounds, of which about 150 (0.038%) were called active. About 3% were inconclusive and are not listed. Calls follow the shape of the dose curve; as a rule, active = well fitted inhibition curve with a large enough effect; inconclusive = small, poorly fitted or top-dose-only effect; inactive = no such curve, though single readings can be large or run the other way. The list shows a part of the results, in another mix than the full data. A structure can be active in one record and inactive in another.

biological target: Regulator of G-protein signaling 4 (Homo sapiens) (UniProt P49798); experiment: Inhibitors of Regulator of G Protein Signaling (RGS) 4: qHTS; conditions: Transcreener GDP fluorescence polarization, RGS4-accelerated GTP hydrolysis; series mostly up to 114 µM; activity change, negative = inhibition: at the top concentration; also: nearly all actives have a fitted effect of over 75% in size
UniProt P49798, sequence (P49798 whole entry, looked up): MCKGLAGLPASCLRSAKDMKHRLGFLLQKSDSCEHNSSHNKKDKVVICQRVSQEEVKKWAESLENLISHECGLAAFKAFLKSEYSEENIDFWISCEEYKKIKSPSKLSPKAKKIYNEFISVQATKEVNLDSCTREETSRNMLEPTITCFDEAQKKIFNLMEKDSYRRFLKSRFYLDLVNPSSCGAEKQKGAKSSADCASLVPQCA
Procedure, shortened: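 MLSMR compounds (23 nl, pin-transferred) preincubated 10 min at room temperature with a 500nM (2x) first reagent, then RGS4 at 900nM (2x) plus Transcreener GDP mix added; fluorescence polarization (620/688 nm) read before and after 90 min at 30 °C.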
% is scaled to controls: 0 for no effect and ±100 for the full control effect; potency is read from the fitted curve at half-maximal effect.

Compound	activity change, negative = inhibition	Potency
O=C1c2ccsc2SCCN1Cc1c(Cl)cccc1Cl	inactive: 153%	–
C#CCn1c(=O)c2c(ncn2C)n(C)c1=O	inactive: -9.65%	–
COc1ccc(C(=O)N2CC3(C)CC2CC(C)(C)C3)cc1OC (centres undefined)	inactive: 65.1%	–
N#C/C(=C\c1ccc(O)c(O)c1)C(=O)NCc1ccccc1	inactive: -8%	–
CCN(CC)C(=O)CSC1=C(C#N)C(c2ccco2)C(C(=O)OCCOC)=C(C)N1 (centres undefined)	inactive: 21.4%	–
CCN(c1nc(N)c(C(=O)N=C(N)N)nc1Cl)C(C)C	inactive: 9.22%	–
CC(=O)c1cccc(NC(=O)Cn2c(=O)oc3cc(S(=O)(=O)N4CCCC4)ccc32)c1	inactive: -27.6%	–
CSc1ccccc1C(=O)NCc1ccccc1C	inactive: 55.3%	–
O=C(NCc1cccc(Cl)c1)C1CCCN(c2ncnc3c2nc2n3CCCCC2)C1 (centres undefined)	inactive: 66.1%	–
O=C1NC(O)=NC1(c1ccccc1)c1ccccc1	inactive: -15.8% [at 56.9 µM]	–
CN(C)C/C=C(\c1ccc(Br)cc1)c1cccnc1	–	inactive
CN1Cc2c(N)cccc2C(c2ccccc2)C1 (centres undefined)	–	inactive
CC(=O)O[C@H]1C(=O)[C@]2(C)[C@H]([C@H](OC(=O)c3ccccc3)[C@]3(O)C[C@H](OC(=O)[C@H](O)[C@@H](NC(=O)c4ccccc4)c4ccccc4)C(C)=C1C3(C)C)[C@]1(OC(C)=O)CO[C@@H]1C[C@@H]2O	inactive: 2.09%	–
O=C1NC(=O)C(c2ccccc2)(c2ccccc2)N1	–	inactive
CCCCC(C=O)NC(=O)C(CC(C)C)NC(=O)OCc1ccccc1 (centres undefined)	inactive: -159% [at 56.9 µM]	–
Cc1ccc(/C=C2\C(=O)ON=C2c2ccccc2)o1	inactive: -37.2%	–
CN[C@@H]1CC[C@H](c2ccc(Cl)c(Cl)c2)c2ccccc21	inactive: -28.5%	–
CC1CCC(NC(=O)c2nn(C)c3c2CS(=O)(=O)c2ccccc2-3)CC1 (centres undefined)	inactive: 60.8%	–
CNC(=O)[C@H]1O[C@@H](n2cnc3c(NCc4cccc(I)c4)nc(Cl)nc32)[C@H](O)[C@@H]1O	inactive: -20.9%	–
N#CC(C#N)=C(N)/C(C#N)=C/c1cc(O)c(O)c(O)c1	inactive: -37.8%	–
CCN(CC)CCCCCCCCOC(=O)c1cc(OC)c(OC)c(OC)c1	inactive: 22.2%	–
CCCCNC(=S)NNC(=O)c1ccncc1	inactive: 66.3%	–
C=CCc1cccc(C=NNC(=O)CN2CCN(Cc3ccccc3)CC2)c1O	inactive: 12.6% [at 56.9 µM]	–
c1ncc(CC2CCNCC2)[nH]1	inactive: -24.4% [at 56.9 µM]	–
Cn1ccc2cc3c(cc21)CCN3C(=O)Nc1cccnc1	inactive: -43.7%	–
O=c1cc(-c2ccccc2)oc2cccc(O)c12	inactive: -10.2%	–
CCOC(=O)Nc1ccc2c(c1)N(C(=O)OCCN(C)C)c1ccccc1CC2	inactive: -32.7%	–

Compound	activity change, negative = inhibition	Potency
Cc1cc(N)c2ccccc2[n+]1CCCCCCCCCC[n+]1c(C)cc(N)c2ccccc21	–	active: 23.8 µM
CN(C)[C@@H]1CCC[C@@H]1OC(=O)C(c1ccccc1)c1ccccc1	inactive: 27.5%	–
COc1cccc(NC(=O)CSc2nc3ccccc3n2C)c1	inactive: -9.15%	–
C=CCC1C=C(Cc2ccccc2)CC(CC=C)N1 (centres undefined)	inactive: 20%	–
OCC[C@H]1C[C@H](O)[C@@H](O)[C@]2(OCCc3ccccc32)O1	inactive: 23.4%	–
CNC1(C)[C@H]2CC[C@H](C2)C1(C)C (some centres undefined)	inactive: 15.3%	–
CN(C)/C=C1\C=C(c2ccccc2)OC1=O	inactive: -50.8%	–
NC(CO)C(=O)NNCc1ccc(O)c(O)c1O (centres undefined)	–	active: 9.47 µM
CC(OC(=O)c1snc(C(=O)NC2CCCCC2)c1N)C(=O)NC(C)(C)C (centres undefined)	inactive: 55.5%	–
COc1ccc(NC(=O)COc2ccc(-c3nn(C)c(=O)c4ccccc34)cc2)cc1	inactive: -31.6%	–
Cc1ccc(N2C(=O)/C(=C/c3ccco3)SC2=S)cc1	inactive: -25.3%	–
CC(/C=N/n1c(-c2ccco2)n[nH]c1=S)=C\c1ccccc1	inactive: -35.1%	–
O=C1NC(=O)/C(=C/c2ccc(N3CCOCC3)o2)N1	inactive: -24.6%	–
OCCC1CN(Cc2ccsc2)CCN1C1CCCC1 (centres undefined)	inactive: 72.8%	–
C[C@]1(C2CCCC2)Cc2cc(OCC(=O)O)c(Cl)c(Cl)c2C1=O	inactive: -3.49%	–
COc1ccc(N2CCN(C(=O)c3cc4c(s3)-c3ccccc3OC4)CC2)cc1	inactive: 2.01%	–
COC(=O)C1=C[C@@H](C(=O)OC)[C@@H]2C3=C(C(=O)[C@@]2(CC(C)C)NC(=O)c2ccccc2)[C@H](C)n2c(=O)n(-c4ccccc4)c(=O)n2[C@@H]3C1	inactive: 3.77%	–
CN(C)[C@@H]1C(=O)C(C(N)=O)=C(O)[C@@]2(O)C(=O)C3=C(O)c4c(O)ccc(Cl)c4[C@@H](O)[C@H]3C[C@@H]12	inactive: -14.6%	–
O=C(CCCN1CCC(O)(c2cccc(C(F)(F)F)c2)CC1)c1ccc(F)cc1	–	inactive
Oc1cc2c(c(Cl)c1O)CCNCC2c1ccccc1 (centres undefined)	inactive: 21.5%	–
O=C1S/C(=C\c2ccc(N3CCOCC3)o2)C(=O)N1Cc1c(F)cccc1Cl	inactive: -109%	–
CCCCC/C=C\C[C@H](O)/C=C/c1cccc(C[C@H](O)CCCCO)n1	inactive: -5.04%	–
O=C1CC(c2ccc(F)cc2)Cc2nc(N3CCOCC3)ncc21 (centres undefined)	inactive: 169%	–
CC(C)NCC(O)c1cc(O)cc(O)c1 (centres undefined)	inactive: 5.84%	–
CC(=O)/C(C)=N/O	inactive: -3.44% [at 56.9 µM]	–
CCCn1cnc2c1c(=O)n(CCCCC(C)=O)c(=O)n2C	–	inactive and active: 23.8 µM
CCCCCCCCCCCCCCSCC(=O)O	inactive: 38.5% [at 56.9 µM]	–
